Results on 1 protein are retold here after doi:10.1101/2023.05.22.541714 (bioRxiv, 2023).

This data set deals with the molecule itself. Description: cryo-EM structure.

B1: human vimentin ΔT ([…]) (domain or fragment)
chain: not shown
Consider B1, for which the binding result was “binds”.
